{"source": "paper PMC4336329", "about": "(PLoS ONE, 2015)", "note": "About 2,200 (0.71%) of roughly 310,000 compounds showed an effect of 50% or more. The effect is printed as a negative number. This is one part of the list."}
{"target": "human ether-à-go-go-related gene (hERG) potassium channel (human, UniProt Q12809)", "sequence (Q12809 whole entry, looked up)": "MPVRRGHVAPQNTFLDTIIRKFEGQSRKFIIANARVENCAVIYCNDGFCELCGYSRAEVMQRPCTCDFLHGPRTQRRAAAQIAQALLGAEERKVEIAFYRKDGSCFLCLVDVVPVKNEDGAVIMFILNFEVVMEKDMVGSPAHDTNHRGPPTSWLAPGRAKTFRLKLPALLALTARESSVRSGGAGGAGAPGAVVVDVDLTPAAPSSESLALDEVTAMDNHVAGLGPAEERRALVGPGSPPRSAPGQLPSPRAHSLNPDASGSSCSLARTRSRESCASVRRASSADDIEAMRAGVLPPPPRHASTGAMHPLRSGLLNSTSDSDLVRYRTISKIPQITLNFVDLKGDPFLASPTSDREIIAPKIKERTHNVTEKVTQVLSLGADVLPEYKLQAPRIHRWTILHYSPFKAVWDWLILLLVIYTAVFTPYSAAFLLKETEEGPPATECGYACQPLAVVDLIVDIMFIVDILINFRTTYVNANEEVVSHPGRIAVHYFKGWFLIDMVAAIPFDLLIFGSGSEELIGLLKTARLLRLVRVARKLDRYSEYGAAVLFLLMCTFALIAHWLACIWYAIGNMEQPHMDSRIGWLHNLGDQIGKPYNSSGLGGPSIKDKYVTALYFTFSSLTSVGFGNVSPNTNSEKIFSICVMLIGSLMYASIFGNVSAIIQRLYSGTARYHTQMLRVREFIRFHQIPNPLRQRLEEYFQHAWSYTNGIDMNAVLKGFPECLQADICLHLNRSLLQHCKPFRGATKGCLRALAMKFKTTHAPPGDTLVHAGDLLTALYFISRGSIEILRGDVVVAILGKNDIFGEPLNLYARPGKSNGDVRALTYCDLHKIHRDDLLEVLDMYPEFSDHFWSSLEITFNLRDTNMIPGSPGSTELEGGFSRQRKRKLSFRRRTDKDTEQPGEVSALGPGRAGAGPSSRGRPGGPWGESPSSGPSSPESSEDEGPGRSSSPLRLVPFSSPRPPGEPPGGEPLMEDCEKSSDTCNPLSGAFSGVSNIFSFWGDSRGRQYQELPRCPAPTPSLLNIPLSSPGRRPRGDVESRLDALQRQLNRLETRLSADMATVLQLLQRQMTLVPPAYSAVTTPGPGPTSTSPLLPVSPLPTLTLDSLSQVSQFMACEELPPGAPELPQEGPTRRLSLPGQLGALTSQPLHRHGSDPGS", "experiment": "primary screen, population patch clamp on CHO cells stably expressing hERG", "units": {"hERG current change (%, negative = inhibition) at 1uM": "%"}}
{"smiles": "O=C(COC(=O)CCC1CCCCC1)Nc1ccc(OC(F)F)cc1", "hERG current change (%, negative = inhibition) at 1uM": 8.65}
{"smiles": "CCN(Cc1cc2cc(C)ccc2[nH]c1=O)S(=O)(=O)c1ccccc1", "hERG current change (%, negative = inhibition) at 1uM": 4.31}
{"smiles": "O=S(=O)(c1ccc(F)cc1)N1CCN(c2ccccc2)CC1", "hERG current change (%, negative = inhibition) at 1uM": 3.7}
{"smiles": "CCN1CCC(N2CCN(c3ccc(F)cc3)CC2)CC1", "hERG current change (%, negative = inhibition) at 1uM": 10.6}
{"smiles": "Cc1ccc(S(=O)(=O)CC(=O)c2ccccc2)cc1", "hERG current change (%, negative = inhibition) at 1uM": 4.09}
{"smiles": "CCCc1cc(=O)[nH]c(SCc2cc(Cl)ccc2OC(F)F)n1", "hERG current change (%, negative = inhibition) at 1uM": -6.63}
{"smiles": "COc1ccc(C2c3sc(=O)[nH]c3SC3C4CCC(C4)C23)cc1", "note": "(centres unmarked)", "hERG current change (%, negative = inhibition) at 1uM": 0.607}
{"smiles": "Cc1cc(NC(=O)c2c(F)c(F)c(F)c(F)c2F)no1", "hERG current change (%, negative = inhibition) at 1uM": -8.09}
{"smiles": "O=C(CSc1cccc2cccnc12)N/N=C/c1ccc(F)cc1", "hERG current change (%, negative = inhibition) at 1uM": 8.21}
{"smiles": "CCc1ccc(-c2nn(Cc3ccccc3)cc2C(=O)NCC2CCCO2)cc1", "note": "(centres unmarked)", "hERG current change (%, negative = inhibition) at 1uM": 8.4}
{"smiles": "O=C(NCCO)C1(c2ccc(Cl)cc2)CCCC1", "hERG current change (%, negative = inhibition) at 1uM": 6.57}
{"smiles": "O=c1oc2ccccc2c(Nc2ccc(O)cc2)c1[N+](=O)[O-]", "hERG current change (%, negative = inhibition) at 1uM": 4.44}
{"smiles": "CCOn1c(-n2nc(C)cc2C)nc2ccccc2c1=O", "hERG current change (%, negative = inhibition) at 1uM": 11}
{"smiles": "O=C1C2CC=CCC2C(=O)N1Nc1ccccc1", "note": "(centres unmarked)", "hERG current change (%, negative = inhibition) at 1uM": 13.3}
{"smiles": "CCOc1ccccc1NC(=O)C1C2CCC(O2)C1C(=O)O", "note": "(centres unmarked)", "hERG current change (%, negative = inhibition) at 1uM": 16.8}
{"smiles": "O=C(c1cc2ccccc2oc1=O)N1CCCCCCC1", "hERG current change (%, negative = inhibition) at 1uM": 13.7}
{"smiles": "CCn1cc(C(=O)NCc2ccco2)c(=O)c2cc(S(=O)(=O)N3CCc4ccccc4C3)ccc21", "hERG current change (%, negative = inhibition) at 1uM": -0.558}
{"smiles": "CCOc1ccc(NC(=O)CN(C)C(=O)Cc2ccsc2)cc1OCC", "hERG current change (%, negative = inhibition) at 1uM": 1.2}
{"smiles": "Cc1cc(NC(=O)c2c(Br)c(C)nn2C)no1", "hERG current change (%, negative = inhibition) at 1uM": 8.15}
{"smiles": "CC(C)CNC(=O)C(=O)NCC(c1ccc2c(c1)OCO2)N1CCOCC1", "note": "(centres unmarked)", "hERG current change (%, negative = inhibition) at 1uM": 12.8}
{"smiles": "O=C(CNC(=S)NC(=O)c1cccc([N+](=O)[O-])c1)c1ccccc1", "hERG current change (%, negative = inhibition) at 1uM": 1.25}
{"smiles": "CCC(=O)Oc1ccc(NC(=O)c2ccco2)cc1", "hERG current change (%, negative = inhibition) at 1uM": 2.83}
{"smiles": "Cc1cc(C)n(C(=O)c2ccc(C)o2)n1", "hERG current change (%, negative = inhibition) at 1uM": -0.671}
{"smiles": "CCOP(=O)(OCC)C(NC(=O)c1ccc(OC)cc1)c1ccccc1", "note": "(centres unmarked)", "hERG current change (%, negative = inhibition) at 1uM": 11.3}
{"smiles": "COC(=O)Cn1c(-c2ccc(OC)cc2)c(-c2ccc(OC)cc2)nnc1=O", "hERG current change (%, negative = inhibition) at 1uM": 5.49}
{"smiles": "S=c1[nH]nc(COc2ccc(Cl)cc2)n1Cc1ccccc1", "hERG current change (%, negative = inhibition) at 1uM": -1.58}
{"smiles": "COc1cccc(NC(=O)C(OC(=O)/C=C/c2ccc3c(c2)OCO3)c2ccccc2)c1", "note": "(centres unmarked)", "hERG current change (%, negative = inhibition) at 1uM": -4.59}
{"smiles": "CN(C)S(=O)(=O)c1cccc(NC(=O)c2cc(=O)[nH]c(=O)[nH]2)c1", "hERG current change (%, negative = inhibition) at 1uM": 16.6}
{"smiles": "CNCC(O)Cn1c2c(c3ccccc31)CCCC2", "note": "(centres unmarked)", "hERG current change (%, negative = inhibition) at 1uM": 5.22}
{"smiles": "O=S(=O)(c1cccs1)N1CN(Cc2ccco2)c2nc3ccccc3nc21", "hERG current change (%, negative = inhibition) at 1uM": 5.05}
{"smiles": "COC(=O)C(Oc1ccc2c(-c3ccc(OC)cc3)cc(=O)oc2c1)c1ccccc1", "note": "(centres unmarked)", "hERG current change (%, negative = inhibition) at 1uM": 0.842}
{"smiles": "Cc1ccc(NC(=O)C2C3CC4OC(=O)C2C4C3)cc1Cl", "note": "(centres unmarked)", "hERG current change (%, negative = inhibition) at 1uM": 0.412}
{"smiles": "C/C(CC(=O)Nc1cccc(Cl)c1Cl)=N\\NC(=O)c1ccccc1N", "hERG current change (%, negative = inhibition) at 1uM": 14.1}
{"smiles": "O=C(O)c1cccc2c1C(=O)N(Cc1ccncc1)C2", "hERG current change (%, negative = inhibition) at 1uM": 15.7}
{"smiles": "Cc1ccc(NC(=O)C(C)Sc2n[nH]c(CNc3ccccc3)n2)cc1", "note": "(centres unmarked)", "hERG current change (%, negative = inhibition) at 1uM": 11.9}
{"smiles": "CCC(=O)NC(=S)Nc1ccc(NC(=O)CC)cc1", "hERG current change (%, negative = inhibition) at 1uM": 0.36}
{"smiles": "Cc1cc(C)nc(NC(=NCc2ccc3c(c2)OCO3)NC(=O)Nc2ccccc2)n1", "hERG current change (%, negative = inhibition) at 1uM": -4.02}
{"smiles": "Cn1c(SCC(=O)Nc2ccccc2Br)nnc1-c1cnccn1", "hERG current change (%, negative = inhibition) at 1uM": 12.9}
{"smiles": "Oc1ccc2n[nH]nc2c1", "hERG current change (%, negative = inhibition) at 1uM": 12.2}
{"smiles": "COc1cccc(N2CCN(S(=O)(=O)c3ccc4c(c3)CC(C)N4C(=O)C3CC3)CC2)c1", "note": "(centres unmarked)", "hERG current change (%, negative = inhibition) at 1uM": 14.3}
{"smiles": "Cn1c(NC(=O)c2ccccc2F)c(-c2cccs2)c(=O)c2ccccc21", "hERG current change (%, negative = inhibition) at 1uM": -9.32}
{"smiles": "Oc1c(I)cc(I)c2cccnc12", "hERG current change (%, negative = inhibition) at 1uM": 3.38}
{"smiles": "Cc1cccc(/N=C/c2c(O)cc(C)oc2=O)n1", "hERG current change (%, negative = inhibition) at 1uM": 8.84}
{"smiles": "Cc1cccc(N(CC(=O)NC(C)C)C(=O)CCC(=O)Nc2ccccn2)c1", "hERG current change (%, negative = inhibition) at 1uM": 7.08}
